Experimental data reported in PubChem BioAssay AID624417 (National Center for Advancing Translational Sciences (NCATS), 2012).
Hit rate of the full screen: of about 410,000 compounds, about 6,400 (1.6%) were called active. This list was built around the results that the source calls inconclusive (neither active nor inactive); the mix of calls is not that of the screen. Calls come from the whole dose curve; as a rule, active = well fitted inhibition curve with a large enough effect; inconclusive = small, poorly fitted or top-dose-only effect; inactive = no such curve, though single readings can be large or run the other way. Potencies of inconclusive entries are left out as doubtful fits.

These compounds were tested against Glucagon-like peptide 1 receptor (Homo sapiens) (UniProt P43220) (assay: qHTS of GLP-1 Receptor Inverse Agonists (Inhibition Mode)). Conditions: HEK293 GLP-1R CRE-luciferase, luminescence, 24 h, GLP-1R form is constitutively active; series mostly up to 38.3 µM.
UniProt P43220, sequence (P43220 whole entry, looked up): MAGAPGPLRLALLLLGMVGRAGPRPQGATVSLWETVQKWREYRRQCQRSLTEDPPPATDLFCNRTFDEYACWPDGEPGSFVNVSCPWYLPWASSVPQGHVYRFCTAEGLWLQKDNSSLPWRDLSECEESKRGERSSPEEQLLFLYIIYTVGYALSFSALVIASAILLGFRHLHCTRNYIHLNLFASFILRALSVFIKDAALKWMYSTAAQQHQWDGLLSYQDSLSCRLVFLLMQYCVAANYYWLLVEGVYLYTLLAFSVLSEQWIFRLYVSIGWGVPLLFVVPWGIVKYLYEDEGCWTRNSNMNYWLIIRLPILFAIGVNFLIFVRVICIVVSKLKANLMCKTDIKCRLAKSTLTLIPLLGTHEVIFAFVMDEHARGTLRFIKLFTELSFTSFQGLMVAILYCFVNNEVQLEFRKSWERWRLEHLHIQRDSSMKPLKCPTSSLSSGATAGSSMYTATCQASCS
Outline: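 Constitutively active GLP-1R drives a cAMP-responsive luciferase in stably transfected HEK293 cells; test compounds are added after overnight (12 h) attachment and left 24 hr, and signal loss in luminescence marks inhibition.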
Note: nearly all actives have a fitted effect of over 55% in size.
Potency is the fitted concentration of half-maximal effect; tags give direction and shape of the fitted curve.

SMILES | Potency
CSc1ccc(/C=C/C(=O)c2ccc(O)cc2)cc1 | inconclusive [inhibitor, single point]
O=C(Nc1ccc2oc(-c3ccccc3F)nc2c1)c1ncn[nH]1 | inconclusive [inhibitor, single point]
O=[N+]([O-])c1c(Nc2ccc(O)cc2)cc(Cl)c2nonc12 | inconclusive [inhibitor, partial curve, poor fit]
Nc1ccc(-c2cnc3ccccc3n2)cc1 | inconclusive [inhibitor, partial curve, poor fit]
Cc1ccccc1Oc1ccc2c(c1)[C@@H]1C[C@H](N(C)C(=S)Nc3ccc(F)cc3)[C@H]([C@H](C)O)C(=O)N1CC2 | inconclusive [inhibitor, partial curve, poor fit]
CCOc1ccc(CNC(=O)C2CCCN(S(=O)(=O)c3ccc4c(ccn4C)c3)C2)cc1 (stereo not given) | inconclusive [inhibitor, partial curve]
O=S(Cc1ccc(Br)cc1)Cc1nnc(SCc2ccc(Br)cc2)n1-c1ccccc1 (stereo not given) | inconclusive [inhibitor, partial curve, poor fit]
COc1ccc(/C=N/NC(=O)c2ccc(Br)cc2)c(OC)c1 | inactive
N#Cc1ccccc1Cn1cc(/C=C/[N+](=O)[O-])c2ccccc21 | inconclusive [inhibitor, partial curve, poor fit]
COC(=O)c1ccc(C(NC(=O)OCc2ccccc2)/C(F)=C/[C@@H](C)C(=O)NCc2ccc(OC)c(OC)c2)cc1 (stereo not given in full) | inconclusive [inhibitor, partial curve, poor fit]
Cc1ccc(-c2nnc(OCC3CCCO3)c3ccccc23)cc1 (stereo not given) | inconclusive [inhibitor, single point]
Cc1ccc(C(=O)N/C(=C/c2ccco2)C(=O)NCCc2c[nH]c3ccccc23)cc1C | inconclusive [inhibitor, single point]
Cc1ccc(Cn2ncc3c(N4CCOCC4)ncnc32)cc1 | inactive
COc1cccc(Nc2ncccc2C(=O)Nc2ccccc2)c1 | inconclusive [inhibitor, single point]
CCCCNC(=S)NNC(=O)c1ccco1 | inactive
Oc1ccc(N=Nc2ccc3c(c2)OCCO3)c(O)c1 | inconclusive [inhibitor, partial curve, poor fit]
Cc1cc(C)c2c(C)c(C(=O)Nc3c(C)n(C)n(-c4ccccc4)c3=O)oc2c1 | inconclusive [inhibitor, single point]
COc1cccc(N2CCN(C(=O)CCc3c(C)nc4c(c3C)c(=O)n(C)c(=O)n4C)CC2)c1 | inactive
Cc1cccc(C)c1NC(=O)c1sccc1SCc1cccc(C(F)(F)F)c1 | inconclusive [inhibitor, full curve, poor fit]
O=C(O)c1ccc(C[n+]2c(-c3ccccc3)csc2Nc2ccccc2)cc1 | inactive
CC(C)(C)Nc1nc2ccc([N+](=O)[O-])cc2o1 | inconclusive [inhibitor, partial curve]
C(=Cc1c[nH]c2ccccc12)c1nccc2ccccc12 | inconclusive [inhibitor, single point]

SMILES | Potency
COc1cccc(N2CC(NC(=O)c3ccco3)CC2=O)c1 (stereo not given) | inactive
O=C(Cc1ccccc1)NCC(=O)OC(c1ccccc1)c1ccccc1 | inconclusive [inhibitor, partial curve, poor fit]
COc1cc(-c2nc3c(c(C)nn3-c3ccccc3)c3cc(OC)c(OC)cc23)ccc1O | inactive
Cc1c(OCC(=O)NC(Cc2ccc(Cl)cc2)C(=O)O)ccc2c(-c3ccccc3)cc(=O)oc12 (stereo not given) | inconclusive [inhibitor, single point]
Clc1ccc2nc(N3CCNCC3)nc(-c3ccccc3)c2c1 | inconclusive [inhibitor, partial curve, poor fit]
COc1ccc(Cn2c(=O)c3oc4ccccc4c3n(Cc3cccc(C(F)(F)F)c3)c2=O)cc1 | inactive
COc1ccc(CNC(=O)Nc2nc(C(N)CCc3ccccc3)cs2)cc1 (stereo not given) | inconclusive [inhibitor, single point]
Cc1cc(C)n(CC(O)Cn2c3ccc(Br)cc3c3cc(Br)ccc32)c(=O)n1 (stereo not given) | active: 11.2 µM
Cc1cc(OCC(=O)N(Cc2ccco2)C2CCS(=O)(=O)C2)cc(C)c1Cl (stereo not given) | inconclusive [inhibitor, partial curve, poor fit]
Cc1ccc(S(=O)(=O)Nc2cc(-c3ccccc3)nn2C)cc1 | inconclusive [inhibitor, partial curve, poor fit]
CCc1nn(CC(=O)NCCCN(CC(C)C)CC(C)C)c(=O)c2cc3sc(C)cc3n12 | inactive
O=C(Nc1nc2ccccc2n1CCN1CCOCC1)c1cn(-c2ccccc2)nc1-c1ccccc1 | inconclusive [inhibitor, single point]
Cc1nc(NCCc2ccccc2)c(C#N)c(C)c1[N+](=O)[O-] | inconclusive [inhibitor, partial curve, poor fit]
CN(C)CCCN(C(=O)c1cc(-c2cccs2)nc2ccccc12)c1nc2c(F)cccc2s1 | inconclusive [inhibitor, partial curve, poor fit]
Cc1ccc2c(c1)C(=O)C(=O)N2Cc1ccc(Cl)cc1 | inconclusive [inhibitor, single point]
COc1ccc(/C=C/C(=O)NC(=S)NNC(=O)c2ccco2)cc1 | inconclusive [inhibitor, single point]
COc1ccccc1Cc1nc2ccccc2nc1SCC(=O)N(C)c1ccc(F)cc1 | inactive
c1cc(OCCCN2CCCCC2)ccc1CN1CCCCC1 | inactive
COc1ccccc1C(=O)Nc1ccncc1 | inactive
Cc1cc(C)c(N=C2CCCN2Cc2ccccc2)c(C#N)c1 | inconclusive [inhibitor, partial curve]
Cc1cccc(N2CCN(C(=O)Nc3cn(CC(C)C)c(=O)c4ccccc34)CC2)c1C | inconclusive [inhibitor, single point]
CCOc1ccc(NC(=S)N(Cc2ccc(Cl)cc2)Cc2ccco2)cc1 | active: 11.2 µM

SMILES | Potency
COc1ccc(C2c3[nH]c4ccccc4c3CCN2C(=O)c2cn3ccccc3n2)c(F)c1 (stereo not given) | inconclusive [inhibitor, partial curve, poor fit]
Cc1nnc(N2CCC(C(=O)NCCc3ccccc3Cl)CC2)c2nn(-c3ccccc3)c(C)c12 | inactive
Cc1cc(C)c(N2C(=O)CC(Sc3ccccc3N)C2=O)c(C)c1 (stereo not given) | inconclusive [inhibitor, full curve, poor fit]
O=C(Nc1ccc(N2CCOCC2)cc1)c1cc2c(s1)CCCCC2 | inconclusive [inhibitor, partial curve]
Cc1cc(-c2csc(NC(=O)c3ccc(=O)[nH]c3)n2)c(C)n1Cc1ccccc1 | inconclusive [inhibitor, full curve, poor fit]
CC(C)c1ccc(CN(Cc2ccco2)c2cnc(S(C)(=O)=O)nc2C(=O)Nc2ccc(F)cc2)cc1 | inconclusive [inhibitor, full curve, poor fit]
CCOC(=O)C1(Cc2ccccc2C)CCCN(C(=O)COC)C1 (stereo not given) | inactive
CCOc1ccccc1N(CC(=O)NCCSc1ccccc1)S(=O)(=O)c1ccccc1 | inconclusive [inhibitor, single point]
Cc1c(O)ccc(C(=O)COc2ccc(F)cc2)c1O | inconclusive [inhibitor, single point]
Fc1ccc(Nc2nc(NCc3ccco3)c3ccccc3n2)cc1 | active: 3.55 µM
CC(C)c1cc(CNC(=O)c2cc(COc3cncc(Cl)c3)on2)on1 | inconclusive [inhibitor, partial curve, poor fit]
O=C(N/N=C/c1cc([N+](=O)[O-])ccc1N1CCCCCC1)c1ccccn1 | inactive
O=P(OC1CCCCC1)(OC1CCCCC1)C(Nc1ccccc1)c1cccnc1 (stereo not given) | inconclusive [inhibitor, single point]
CC(C)CC(N)c1csc(NC(=O)c2cc(C(C)(C)C)nn2Cc2ccccc2)n1 (stereo not given) | inconclusive [inhibitor, partial curve, poor fit]
COc1ccc(C(=O)CN2C(=O)C(C)(C)Oc3ccc(C(=O)N4CCCCCC4)cc32)cc1 | inconclusive [inhibitor, partial curve, poor fit]
Cc1ccc(NC(=O)C(C)c2cccc(C(=O)c3ccccc3)c2)cc1 (stereo not given) | inconclusive [inhibitor, single point]
Cc1ccccc1-c1cc2nc(NCCCN(C)C)n(C)c(=O)c2s1 | inconclusive [inhibitor, partial curve, poor fit]
COc1ccc(CNC(=O)COC(=O)c2ccccc2C(=O)c2ccccc2)cc1 | inconclusive [inhibitor, single point]
N=C1/C(=C\c2coc3ccccc3c2=O)C(=O)N=C2SC(c3ccncc3)=NN12 | inactive
Cc1cccc(N2CCN(C(=O)c3cccc(-n4c(C)nc5cccnc54)c3)CC2)c1C | inactive
COc1ccc(N=CC2=C(O)c3ccccc3C2=O)c(OC)c1 | inconclusive [inhibitor, full curve, poor fit]
